Experimental findings from ChEMBL document CHEMBL4888484, “Replenishing the malaria drug discovery pipeline: Screening and hit evaluation of the MMV Hit Generation Library 1 (HGL1) against asexual blood stage Plasmodium falciparum ,using a nano luciferase reporter read-out” (2022) are described below.

SMILES strings stand for the structures. Out of some 150,000 compounds screened, about 540 (0.36%) showed an effect of 50% or more. The list shows a part of the results.

In this assay the test system is Plasmodium falciparum. Nature of the assay: Primary screen in NF54 nanoGlo assay, in single point, at 2uM, 72h; a lower Z score goes with more inhibition. As to conditions: timepoint 72 hour. It is filed as functional, Erythrocyte.
For `CC1(C)CC(NC(=O)C2CCCN(c3ccc4nnnn4n3)C2)CCO1` (stereo unspecified), the “% Inhibition” value is listed as 4% and the Z score is given as -0.44.
For `CCOC(=O)[C@H]1CCCN(C(=O)CCn2ccnc2)C1` the same measures were -7% and 0.9.
For `O=C(c1ccc(F)c(F)c1F)N1CCn2nccc2C1` the same measures were -13% and 2.02.
For `COc1cc(-c2cnc(OC)nc2OC)c(Cl)cn1` the same measures were -8% and 0.8.
In the case of `CCOC(=O)CCn1cc(F)c(=O)[nH]c1=O`, the “% Inhibition” value came out at 74% and the Z score was -6.55.
The like results for `Cc1cccc(Cn2nc([C@H](O)c3ccccc3)nc2CN2CCOC2=O)c1` were, in that order, 1% and -0.12.
The like results for `CC/C=C\CCCN1CCC[C@](CC)(C(N)=O)C1` were, in that order, -5% and 0.62.
Consider `COc1cccc(-c2cc(C(=O)N3CCC[C@@]4(C3)OC(=O)c3ccccc34)n(C)n2)c1`, for which the “% Inhibition” value is given as -7% and the Z score is 1.29.
The like results for `O=C(CCC(F)(F)F)N[C@H]1CCCN(C2CCCCCC2)C1` were, in that order, -19% and 2.07.
The like results for `CCNC(=O)[C@H]1CCCN(c2nccn(C3CC3)c2=O)C1` were, in that order, -16% and 2.
For `CC(C)N(CC1CCC1)C(=O)NCCn1cccn1`, the “% Inhibition” value is listed as -4% and the Z score was found to be 0.48.
For `Cc1cc2c(N3CCC[C@H](Cn4ccnc4C)C3)ncnc2s1`, the “% Inhibition” value is given as -6% and the Z score turned out to be 0.82.
The like results for `O=C1C[C@]2(C(=O)Nc3ccccc32)c2cnn(Cc3ccc(Cl)cc3)c2N1` were, in that order, -1% and 0.16.
With `CCn1cncc1CNC(=O)c1cccc(-c2cnn(CCC(N)=O)c2)c1`, the “% Inhibition” value is recorded as -15% and the Z score came to 1.85.
For `CC(C)N1CCN(C(=O)[C@@]23CCCC[C@H]2N(C)C(=O)CC3)CC1` the same measures were -11% and 1.13.
The like results for `O=C(Cn1c2c(c3ccccc31)CCC2)NCCn1ncccc1=O` were, in that order, 8% and -1.
For `O=C(Nc1ccc2c(c1)CCC2)c1ncccc1O`, the “% Inhibition” value was -2% and the Z score is 0.21.
For `Cc1nocc1S(=O)(=O)N1CCC[C@H](n2ccnn2)CC1` the same measures were -11% and 2.11.
In the case of `COc1cnc(C(=O)NCc2c(F)cccc2OC(F)F)nc1`, the “% Inhibition” value is on record as -9% and the Z score turned out to be 1.19.
In the case of `Cc1cccc(Cc2c(C)nc(CN(CC(C)C)C(=O)C3CCC3)[nH]c2=O)c1`, the “% Inhibition” value turned out to be 0% and the Z score was determined as 0.02.
For `Cc1nc(Cn2cc(C(=O)N3CC(C)(C)CC(C)(C)C3)nn2)no1` the same measures were 2% and -0.38.
On to `COc1ccccc1-c1nc(NCCc2ccccn2)nc2nn(Cc3ccccc3)c(N)c12`, for which the “% Inhibition” value stood at 2% and the Z score is -0.32.
As to `Cc1cc(C)cc(CCNC(=O)NCc2nccn2C)c1`, the “% Inhibition” value is 2% and the Z score is given as -0.24.
On to `O=C(Cc1cccnc1)N1CCC(OCCOc2ccccc2)CC1`, for which the “% Inhibition” value is -16% and the Z score is listed as 2.52.
The like results for `CCNC(=O)[C@H]1CCN(C(=O)Nc2ccccc2Oc2ccccc2OC)C1` were, in that order, -12% and 1.53.
The like results for `O=C(NCc1ccccn1)c1ccncc1F` were, in that order, -20% and 2.62.
As for `CN(C)S(=O)(=O)Nc1c(F)cc(F)cc1Cl`, the “% Inhibition” value is recorded as -9% and the Z score is reported as 1.09.
The like results for `CC(C)N(CC1CCC1)C(=O)Cn1cnc2ccccc2c1=O` were, in that order, -10% and 1.
On to `O=C(N[C@H]1CCOC[C@@H]1OCc1ccccn1)c1cnc[nH]1`, for which the “% Inhibition” value is listed as -4% and the Z score came to 0.71.
The like results for `CO[C@@H](C)CS(=O)(=O)Nc1sc(C)c(C)c1C#N` were, in that order, -6% and 0.8.
For `c1cc(-c2noc(-c3cccnc3)n2)cc(-c2ccn[nH]2)c1` the same measures were -16% and 2.05.
For `COc1ccc(NC(=O)CCNC(=O)C2OC3OC(C)(C)OC3C3OC(C)(C)OC23)cc1` (stereo unspecified) the same measures were -13% and 1.58.
Take `COC(=O)c1ccc(C(=O)Oc2ccc(N(C)S(=O)(=O)c3ccccc3F)cc2)cc1`: the “% Inhibition” value is listed as -3% and the Z score came to 0.43.
For `Cc1nc2sccn2c1-c1noc(C[C@H]2CCC(F)(F)C2)n1` the same measures were -11% and 1.09.
Turning to `CCOc1cc(C(=O)N(C)c2ccccc2)ncn1`, the “% Inhibition” value is on record as -4% and the Z score turned out to be 0.69.
The like results for `Cc1cnccc1NC(=O)NC1CCCCC1CO` (stereo unspecified) were, in that order, 4% and -0.35.
For `CCCOc1ccc(N2C[C@@H](C(=O)Nc3ccccc3C(=O)NCc3ccco3)CC2=O)cc1` the same measures were -17% and 2.14.
As to `C[C@H](NCc1ccc(-c2ccc(C(F)(F)F)cc2)o1)c1ccc(NS(C)(=O)=O)cc1`, the “% Inhibition” value was -5% and the Z score came to 0.76.
For `CCc1ccc2ncn(C[C@H]3CCCOC3)c(=O)c2c1`, the “% Inhibition” value is given as -7% and the Z score was found to be 1.08.
The like results for `Cc1n[nH]c(C)c1[C@@H](C)CC(=O)N1CCCO1` were, in that order, -5% and 0.72.
The like results for `CC(C)c1noc(-c2ccn3c(CC(=O)N4CCOCC4)nnc3c2)n1` were, in that order, -1% and 0.17.
The like results for `COCCc1nncn1C1CCN(C(=O)c2cccc(Br)c2)CC1` were, in that order, -4% and 0.67.
Take `COCCCN/C(=N\c1cccc(C(=O)O)c1)N1CCN(c2ccccc2F)CC1`: the “% Inhibition” value was -18% and the Z score stood at 1.62.

Usually % Inhibition stands for the relative decrease from the control value, in per cent.
